{
  "source": "PubChem BioAssay AID485344",
  "about": "(National Center for Advancing Translational Sciences (NCATS), 2010)",
  "note": "The campaign covered roughly 340,000 compounds. About 6,900 (2%) were called active. Cut-off read from the data, not from the text of the source: active = inhibition above about 30%; inactive = below that, where a call was filed. Only a part is listed here, and it is no random draw. Where no call is shown, the source filed none.",
  "data": [
    {"target": "D(2) dopamine receptor (Homo sapiens) (UniProt P14416)", "sequence (P14416 whole entry, looked up)": "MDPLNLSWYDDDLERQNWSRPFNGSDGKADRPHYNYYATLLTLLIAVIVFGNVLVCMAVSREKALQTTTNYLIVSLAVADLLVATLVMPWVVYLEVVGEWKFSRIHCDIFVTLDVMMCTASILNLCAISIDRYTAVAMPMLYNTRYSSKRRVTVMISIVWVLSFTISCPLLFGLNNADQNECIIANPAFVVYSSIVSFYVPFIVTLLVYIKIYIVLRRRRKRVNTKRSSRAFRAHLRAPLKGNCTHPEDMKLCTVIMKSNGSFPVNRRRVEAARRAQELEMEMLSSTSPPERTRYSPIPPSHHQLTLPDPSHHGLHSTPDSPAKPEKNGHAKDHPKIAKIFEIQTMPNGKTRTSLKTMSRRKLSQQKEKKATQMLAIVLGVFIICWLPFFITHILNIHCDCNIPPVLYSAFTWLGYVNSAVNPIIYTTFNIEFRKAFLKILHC", "assay": "HTS Assay for Allosteric Antagonists of the Human D2 Dopamine Receptor: Primary Screen for Antagonists; note: 0% is about no effect", "conditions": "HEK293 TREx D2 cells, calcium flux, dopamine EC80; at 10 µM; stronger effect = higher value", "summary_of_the_method": "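Overnight-induced (tetracycline, 30 C) HEK293 T-REx cells carrying force-coupled D2 receive a no-wash calcium dye, then compound, then EC80 dopamine at 180 s; signals are read kinetically throughout.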", "values": [
      {"smiles": "Cc1ccc(-c2nc(S(=O)(=O)c3ccccc3)c(N3CCN(c4ccccc4)CC3)o2)cc1", "inhibition": "13.6%"},
      {"smiles": "Cc1ccc2nc(COc3ccccc3NC(=O)COc3ccc(F)cc3)cc(=O)n2c1", "inhibition": "16.1%"},
      {"smiles": "COc1ccccc1N1CCN(C(=O)c2cc(CC(C)C)on2)CC1", "inhibition": "5.16%"},
      {"smiles": "CCc1ccccc1N(CC)C(=O)c1c(C)oc2ncn(C)c(=O)c12", "inhibition": "-1.16%"},
      {"smiles": "COc1ccc(-n2ccnc2SCC(=O)Nc2ccc3c(c2)OCO3)cc1", "inhibition": "0.369%"},
      {"smiles": "CC(C)(C)C1CCc2c(sc(NC(=O)Cn3nnc(-c4ccccc4Cl)n3)c2C#N)C1", "note": "(stereo not given)", "inhibition": "2.33%"},
      {"smiles": "Cc1cccc(N2CCN(C(=O)CS(=O)(=O)c3cccc4nsnc34)CC2)c1C", "inhibition": "-4.9%"},
      {"smiles": "Cc1ccc(Cl)cc1N1CCN(C(=O)C2CCC(CNS(=O)(=O)c3cccs3)CC2)CC1", "note": "(stereo not given)", "inhibition": "2.93%"},
      {"smiles": "CCOC(=O)c1c(C)[nH]c(C)c1S(=O)(=O)N1CCC(C(=O)Nc2cc(C)ccn2)CC1", "inhibition": "10.3%"},
      {"smiles": "Cc1ccc(CNc2ccc(-c3nc(-c4ccncc4)no3)cc2[N+](=O)[O-])cc1", "inhibition": "15.4%"},
      {"smiles": "COc1ccc(OC)c(C(=O)CC2(O)C(=O)N(Cc3ccccc3C)c3ccccc32)c1", "note": "(stereo not given)", "inhibition": "-15.9%"},
      {"smiles": "CCOc1ccccc1CNC(=O)CCc1c(C)nn(-c2ccc(N3CCCC3)nn2)c1C", "inhibition": "18.5%"},
      {"smiles": "O=C(CCC(=O)Nc1ccc(F)cc1)N/N=C/c1ccccc1O", "inhibition": "active: 33.5%"},
      {"smiles": "Cc1ccc(S(=O)(=O)C2(C(=O)Nc3ccc(Cl)c(C(F)(F)F)c3)CC2)cc1", "inhibition": "-7.4%"},
      {"smiles": "CCOC(=O)c1cccc(NC(=O)CCS(=O)(=O)c2ccc3c(c2)CC(=O)N3C)c1", "inhibition": "-0.418%"},
      {"smiles": "Cc1c(C(=O)N2CCOCC2)oc2c1-c1nn(CC(=O)NCc3cccc(F)c3)cc1CC2", "inhibition": "-5.51%"},
      {"smiles": "COC(=O)c1ccc(Cl)cc1NC(=O)NCCc1c(C)nn(C)c1C", "inhibition": "12.8%"},
      {"smiles": "CC(C)c1ccc(NC(=O)Cn2c(=O)n(CC3CCC(C(=O)NCCc4ccccc4)CC3)c(=O)c3ccccc32)cc1", "note": "(stereo not given)", "inhibition": "-15.9%"},
      {"smiles": "Cc1ccc(S(=O)(=O)Nc2ccc3c(c2)nc(CCN2CCN(c4ccccn4)CC2)n3C)cc1", "inhibition": "active: 51.2%"},
      {"smiles": "COc1ccccc1CNC(=O)Cn1c(=O)nc(-c2ccccc2F)c2cc(Cl)ccc21", "inhibition": "7.35%"},
      {"smiles": "Cc1ccc(-n2c(=O)c3cccnc3n2CC(=O)Nc2cc(C)cc(C)c2)cc1", "inhibition": "1.97%"},
      {"smiles": "COc1cc(OC)cc(C(=O)Nc2cc3c(cc2N2CCOCC2)n(C)c(=O)n3C)c1", "inhibition": "-9.02%"},
      {"smiles": "COc1ccc(-n2nc3cc(C)c(NC(=O)c4ccc(-c5ccc(Br)cc5)o4)cc3n2)cc1", "inhibition": "-9.66%"},
      {"smiles": "CC(=O)N1CCCc2cc(S(=O)(=O)N3CCCC(C(=O)Nc4ccc(C)cc4C)C3)ccc21", "note": "(stereo not given)", "inhibition": "-7.41%"},
      {"smiles": "COc1ccc(-c2cc(C(F)(F)F)nc(N3CCN(C)CC3)n2)cc1", "inhibition": "active: 39.3%"}
    ]}
  ]
}
